Measured values published in the supplement of paper PMC4967469.
IC50 is the fitted dose that halves viability relative to control wells, and lower means more sensitive; fits outside the tested doses are given as limits. The AUC spans the tested range (256-fold, ending at the top dose) of the same fit; it is 1 without any effect and falls as sensitivity rises. For some assays here: Any top dose called inferred was calculated from the reported fits.

What was measured:
Assay in all cases: Viability of human cancer cell lines after 72 h of drug (GDSC screen)
Erlotinib = compound: C#Cc1cccc(Nc2ncnc3cc(OCCOC)c(OCCOC)cc23)c1 [Erlotinib]; details: top dose 2 µM
Description: (§1)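 Human cancer cell lines in 384-well plates, medium with 10% serum, drug for 72 h over a 256-fold dose range (nine 2-fold or five 4-fold steps up to the top dose). Adherent lines were fixed and stained with the nucleic acid dye Syto60, suspension lines read with resazurin; signal relative to control wells, capped at 0 and 100%. One two-parameter sigmoid per drug and line, fitted in a mixed model over all curves with the slope shared within a line.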

WHI-P97 = compound: COc1cc2ncnc(Nc3cc(Br)c(O)c(Br)c3)c2cc1OC [WHI-P97]; details: top dose 10.24 µM; top dose inferred
Description: as §1

XL-184 = compound: COc1cc2nccc(Oc3ccc(NC(=O)C4(C(=O)Nc5ccc(F)cc5)CC4)cc3)c2cc1OC [XL-184]; details: top dose 5.12 µM; top dose inferred
Description: as §1

S-Trityl-L-cysteine = compound: N[C@@H](CSC(c1ccccc1)(c1ccccc1)c1ccccc1)C(=O)O [S-Trityl-L-cysteine]; details: top dose 5.12 µM; top dose inferred
Description: as §1

QL-XI-92 = compound: C=CC(=O)Nc1cc(NC(=O)c2ccc(C)c(NC(=O)c3ccno3)c2)cc(C(F)(F)F)c1 [QL-XI-92]; details: top dose 10.24 µM; top dose inferred
Description: as §1

Phenformin = compound: N=C(N)NC(=N)NCCc1ccccc1 [Phenformin]; details: top dose 4000 µM; top dose inferred
Description: as §1

EHT 1864 = compound: O=c1cc(CN2CCOCC2)occ1OCCCCCSc1ccnc2cc(C(F)(F)F)ccc12 [EHT 1864]; details: top dose 10 µM; top dose inferred
Description: as §1

AG-014699 = compound: CNCc1ccc(-c2[nH]c3cc(F)cc4c3c2CCNC4=O)cc1 [AG-014699]; details: top dose 5 µM; top dose inferred
Description: as §1

Vinorelbine = compound: CCC1=C[C@@H]2CN(C1)Cc1c([nH]c3ccccc13)[C@@](C(=O)OC)(c1cc3c(cc1OC)N(C)[C@H]1[C@@](O)(C(=O)OC)[C@H](OC(C)=O)[C@]4(CC)C=CCN5CC[C@]31[C@@H]54)C2 [Vinorelbine]; details: top dose 0.064 µM; top dose inferred
Description: as §1

NU-7441 = compound: O=c1cc(N2CCOCC2)oc2c(-c3cccc4c3sc3ccccc34)cccc12 [NU-7441]; details: top dose 2 µM; top dose inferred
Description: as §1

Gefitinib = compound: COc1cc2ncnc(Nc3ccc(F)c(Cl)c3)c2cc1OCCCN1CCOCC1 [Gefitinib]; details: top dose 0.5 µM
Description: as §1

Row | Cell Line | AUC (Erlotinib) | IC50 (Erlotinib) | AUC (WHI-P97) | IC50 (WHI-P97) | AUC (XL-184) | IC50 (XL-184) | AUC (S-Trityl-L-cysteine) | IC50 (S-Trityl-L-cysteine) | AUC (QL-XI-92) | IC50 (QL-XI-92) | AUC (Phenformin) | IC50 (Phenformin) | AUC (EHT 1864) | IC50 (EHT 1864) | AUC (AG-014699) | IC50 (AG-014699) | AUC (Vinorelbine) | IC50 (Vinorelbine) | AUC (NU-7441) | IC50 (NU-7441) | AUC (Gefitinib) | IC50 (Gefitinib)
1 | COLO-829 (melanoma, adherent) | 0.953 | > 2 µM | 0.968 | > 10.2 µM | 0.937 | > 5.12 µM | 0.959 | > 5.12 µM | 0.957 | > 10.2 µM | 0.97 | > 4000 µM | 0.934 | > 10 µM | 0.953 | > 5 µM | 0.238 | 0.00047 µM |  |  |  | 
2 | CTB-1 (B-cell lymphoma, suspension) | 0.941 | > 2 µM | 0.979 | > 10.2 µM | 0.979 | > 5.12 µM | 0.8 | 3.62 µM | 0.619 | 1.54 µM | 0.759 | 1890 µM | 0.947 | > 10 µM | 0.964 | > 5 µM | 0.676 | 0.0149 µM | 0.948 | > 2 µM |  | 
3 | DSH1 (bladder, adherent) | 0.97 | > 2 µM | 0.969 | > 10.2 µM | 0.97 | > 5.12 µM | 0.866 | 4.23 µM | 0.985 | > 10.2 µM | 0.986 | > 4000 µM | 0.796 | 4.44 µM | 0.881 | 4.86 µM | 0.485 | 0.00365 µM | 0.989 | > 2 µM |  | 
4 | GA-10 (Burkitt lymphoma, suspension) | 0.646 | 0.294 µM |  |  |  |  | 0.566 | 0.47 µM |  |  |  |  | 0.985 | > 10 µM | 0.991 | > 5 µM | 0.361 | 0.00177 µM | 0.927 | > 2 µM | 0.983 | > 0.5 µM
5 | HCC1599 (breast, suspension) | 0.976 | > 2 µM | 0.954 | > 10.2 µM | 0.925 | > 5.12 µM | 0.72 | 1.49 µM | 0.939 | > 10.2 µM | 0.555 | 362 µM |  |  |  |  | 0.578 | 0.00676 µM |  |  |  | 
6 | IM-9 (myeloma, suspension) | 0.992 | > 2 µM |  |  |  |  | 0.988 | > 5.12 µM |  |  |  |  | 0.937 | > 10 µM | 0.992 | > 5 µM | 0.97 | > 0.064 µM | 0.986 | > 2 µM | 0.986 | > 0.5 µM
7 | KARPAS-231 (B-cell leukaemia, suspension) | 0.981 | > 2 µM |  |  |  |  | 0.822 | 2.14 µM | 0.461 | 0.512 µM |  |  | 0.983 | > 10 µM | 0.974 | > 5 µM | 0.36 | 0.00181 µM | 0.839 | 0.938 µM | 0.992 | > 0.5 µM
8 | KP-N-YS (neuroblastoma, adherent) | 0.981 | > 2 µM | 0.962 | > 10.2 µM | 0.879 | > 5.12 µM | 0.706 | 1.34 µM | 0.762 | 4.19 µM | 0.975 | > 4000 µM |  |  |  |  | 0.744 | 0.0225 µM |  |  |  | 
9 | LB996-RCC (kidney, adherent) | 0.541 | 0.164 µM | 0.976 | > 10.2 µM | 0.961 | > 5.12 µM | 0.806 | 3.12 µM | 0.983 | > 10.2 µM | 0.96 | > 4000 µM | 0.821 | 7.08 µM | 0.873 | > 5 µM | 0.948 | > 0.064 µM | 0.935 | > 2 µM |  | 
10 | LU-139 (small cell lung carcinoma, suspension) | 0.981 | > 2 µM | 0.971 | > 10.2 µM | 0.961 | > 5.12 µM | 0.776 | 2.64 µM | 0.922 | > 10.2 µM | 0.24 | 35 µM | 0.918 | > 10 µM | 0.957 | > 5 µM | 0.823 |  |  |  | 0.891 | > 0.5 µM
11 | NCI-H128 (small cell lung carcinoma, suspension) | 0.98 | > 2 µM |  |  |  |  | 0.979 | > 5.12 µM |  |  |  |  |  |  |  |  |  |  |  |  |  | 
12 | NCI-H322M (lung adenocarcinoma, suspension) | 0.872 | > 2 µM | 0.758 | 4.36 µM | 0.977 | > 5.12 µM |  |  | 0.977 | > 10.2 µM | 0.894 | > 4000 µM | 0.973 | > 10 µM | 0.987 | > 5 µM | 0.986 | > 0.064 µM | 0.921 | > 2 µM | 0.908 | > 0.5 µM
13 | NCI-H716 (large intestine, suspension) | 0.981 | > 2 µM | 0.971 | > 10.2 µM | 0.759 | 2.23 µM | 0.978 | > 5.12 µM | 0.944 | > 10.2 µM | 0.75 | 1620 µM |  |  | 0.952 | > 5 µM | 0.978 | > 0.064 µM |  |  |  | 
14 | NCI-H748 (small cell lung carcinoma, suspension) | 0.98 | > 2 µM | 0.911 | > 10.2 µM | 0.945 | > 5.12 µM | 0.811 | 3.7 µM | 0.822 | 8.27 µM | 0.903 | > 4000 µM |  |  |  |  | 0.79 | 0.0377 µM |  |  |  | 
15 | NCI-H2171 (small cell lung carcinoma, suspension) | 0.991 | > 2 µM | 0.992 | > 10.2 µM | 0.991 | > 5.12 µM | 0.953 | > 5.12 µM | 0.863 | 7.01 µM | 0.849 | 2410 µM |  |  |  |  | 0.895 | 0.0597 µM |  |  |  | 
16 | NTERA-2 cl.D1 (testis, adherent) | 0.981 | > 2 µM | 0.977 | > 10.2 µM | 0.893 | > 5.12 µM | 0.901 | > 5.12 µM | 0.969 | > 10.2 µM | 0.846 | 2870 µM | 0.974 | > 10 µM | 0.846 | 3.59 µM | 0.31 | 0.00118 µM |  |  | 0.943 | > 0.5 µM
